Test system: SARS-CoV-2 Spike protein
Settings: Vero E6 lysates, 10 μM, FIG. 7

Compound	Spike protein level
COc1cc(NC(=N)NCCC(C)(C)c2ccc(C(F)(F)F)cc2)ncc1C#N [Compound F, 1-(5-cyano-4-methoxypyridin-2-yl)-3-(3-methyl-3-(4-(trifluoromethyl)phenyl)butyl)guanidine]	clear decrease

Test system: SARS-CoV-2 Spike protein
Settings: not given

Compound	SARS-CoV-2 Spike protein level
Cc1cc(OCCN2CCOCC2)nn1-c1ccc2ccccc2c1 [Compound S1RA, 4-[2-[[5-methyl-1-(2-naphthalenyl)-1H-pyrazol-3-yl]oxy]ethyl]morpholine, reference compound]	did not
N=C(Nc1ccc(I)cc1)NC1C2CC3CC(C2)CC1C3 (stereo not drawn) [IPAG, reference compound]	striking decrease
COc1cc(NC(=N)NCCC(C)(C)c2ccc(C(F)(F)F)cc2)ncc1C#N [Compound F, 1-(5-cyano-4-methoxypyridin-2-yl)-3-(3-methyl-3-(4-(trifluoromethyl)phenyl)butyl)guanidine]	striking decrease
N=C(NCCCOc1ccc(F)cc1)Nc1ccc(Cl)cc1 [CT189]	striking decrease
COC(=O)c1ccc(NC(=N)NCC(C)(C)COc2ccc(C(F)(F)F)cc2)nc1 [Compound H, methyl 6-(3-(2,2-dimethyl-3-(4-(trifluoromethyl)phenoxy)propyl)guanidino)nicotinate]	striking decrease
